Experimental findings from PubChem BioAssay (NCI) are described below.

This experiment deals with NCI-H322M lung. The experiment is described as follows: growth of human tumour cells (NCI), 48 h.

Several values for one entry are separate records, joined by “and”; a condition that tells them apart may be missing. Equal entries are not always repeated.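 1) Cells in 96-well plates. 2) Compound, 48 h, 5 concentrations. 3) Linear interpolation between surrounding doses. 4) Unreached endpoint = highest concentration. Here, GI50 denotes the concentration required for 50% inhibition of growth. TGI: total growth inhibition.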

On to `CCN(CC)CCNc1cc(-c2cccc(OC(F)(F)F)c2)nc2ccc(N3CCCC3)cc12`, for which the GI50 is 1.63 µM and 1.99 µM and 2.6 µM; the TGI was 3.82 µM and 4.49 µM and 7.95 µM.
Turning to `CCCCN(CCCC)CCCn1c(=O)c2c3ccccc3n(C)c2n2nnc(-c3ccccc3)c12`, the GI50 was 28.8 µM and the TGI is > 100 µM.
Regarding `COc1c(C)cc2c(c1O)C1NC(C2)[C@H](O)N2C3COC(=O)[C@@]4(CS[C@@H](c5c(OC(C)=O)c(C)c6c(c53)OCO6)C12)NCCC1=C4NC2C=CC=CC12` (stereo partly drawn), the TGI was < 0.01 µM.
Still for that read-out and setting: the same measure for `C=C1C(=O)OC2CC1CCC1(C)OC1CCC(C)=CCCC2(C)O` (stereo not drawn): 24 µM.
Regarding `COc1ccc2[nH]cc(CCNC(=O)[C@](O)(Cc3cn(C)c4ccccc34)[C@@]3(O)OCC(O)C3O)c2c1` (stereo partly drawn), the TGI is > 100 µM.
On to `O=C(COc1ccc(Cl)c(Cl)c1)N(Cc1ccccc1)Cc1ccc[n+](Cc2ccc(Cl)cc2S(=O)(=O)F)c1`, for which the TGI is > 100 µM.
Regarding `CC/C(=C(/c1ccc(O)cc1)c1ccc(OCCN2CCCCC2)cc1)c1ccc(OC)cc1`, the GI50 is 2.58 µM and the TGI worked out at 11 µM.
Take `O=C1c2ccccc2C(=O)N1C/C=C/CO`: the TGI is > 100 µM.
Take `Clc1cc2n[se]nc2cc1Cl`: the TGI is > 100 µM.
`CCOc1ccc(NC(=O)C2=C(C)NC(C)=C(C(=O)Nc3ccc(OCC)cc3)C2c2ccccc2)cc1`: the TGI was > 100 µM.
The same measure, in the same setting: with `O=C(O)[C@@H]1NC[C@H]2C(Br)=NO[C@H]21` the figure was > 100 µM; with `CC1(C)CCC(C)(C)c2c1ccc(O)c2Cc1c(O)ccc2c1C(C)(C)CCC2(C)C`, 5.89 µM; with `COc1cccc(Cc2cc(=O)c3ccc(C)nc3[nH]2)c1`, > 100 µM.
Take `O=c1oc2ccc(-n3c(=O)c4ccccc4c4ccccc4c3=O)cc2c2ccccc12`: the TGI is > 100 µM.
Take `O=C(CCC(C(=O)c1ccccc1)c1ccccc1)c1ccccc1` (stereo not drawn): the GI50 is 53.6 µM and the TGI is > 100 µM.
Turning to `COc1ccc2c(c1OC)OCC(CN(C)C)C2=O` (stereo not drawn), the TGI was > 100 µM.
Consider `COc1cc(/C=C2\C(=O)N(C(=O)c3ccc(NC(C)=O)cc3)N=C2C)ccc1O`, for which the TGI was > 100 µM.
With `COc1ccc(NC(=S)N/N=C(\C)c2nc3ncccc3[nH]2)cc1`, the TGI is > 100 µM.
The same measure, in the same setting: with `O=C1OC2CC=CC1C2` (stereo not drawn) the figure was > 100 µM.
For `CC(=O)O[C@H]1C(=O)[C@@]2(C)[C@H]([C@H](OC(=O)c3ccccc3)[C@]3(O)C[C@H](OC(=O)[C@H](O)[C@@H](NC(=O)C(C)(C)C)c4ccccc4)C(C)=C1C3(C)C)[C@]1(OC(C)=O)CO[C@@H]1C[C@@H]2O`, the TGI was > 10 µM.
As to `COC(=O)CSC(=S)Nc1nnc(NC(=S)SCOC(C)=O)n1C(=S)SCC(=O)OC`, the TGI is > 100 µM.
For the molecule `Cc1cc(Oc2ccc3nc(COc4ccc(CC5SC(=O)NC5=O)cc4)n(C)c3c2)cc(C)c1N` (stereo not drawn), the GI50 is 49.2 µM and the TGI is > 100 µM.
On to `CCOC(=O)C(NCc1cccc(C(F)(F)F)c1)(NC(=O)CC)C(F)(F)F` (stereo not drawn), for which the TGI is > 100 µM.
`COC(=O)[C@H](Cc1ccc(O)cc1)NC(=O)[C@@H](OC)[C@@H]1Cc2cc3cc(OC4CC(OC5CC(O)C(O)C(C)O5)C(O)C(C)O4)c(C)c(O)c3c(O)c2C(=O)[C@H]1OC1CC(OC2CC(OC3CC(C)(O)C(O)C(C)O3)C(O)C(C)O2)C(O)C(C)O1` (stereo partly drawn): the GI50 is 0.107 µM and the TGI stood at 5.87 µM.
Regarding `COc1ccc(OC)c(-c2cc(=O)c3c(OC)c(OC)c(OC)c(OC)c3o2)c1`, the TGI was > 100 µM.
For the molecule `CSc1ncnc2c1ncn2C1OC(CO)C(O)OC1O` (stereo not drawn), the TGI was determined as 15.1 µM.
As for `CNc1nnc(CNc2ccc(-c3nnc(NC)n3N)cc2)n1N`, the TGI is > 100 µM.
On to `C1=NCCNCCNCCN=Cc2ccccc2OCc2cccc(n2)COc2ccccc21`, for which the TGI is > 100 µM.
As for `SC1CCCN(Cc2ccccc2)C1` (stereo not drawn), the TGI was > 100 µM.
The same measure, in the same setting: with `C[Si](C)(OCCS(=O)(=O)O)OC(=C1S(=O)(=O)OCCOS1(=O)=O)c1cccc2ccccc12` the figure was > 100 µM.
Consider `N#CCC(=O)N/N=C(\C(=O)Nc1ccc(Cl)c(Cl)c1)C1CN(c2ccccc2)N=C1N` (stereo not drawn), for which the TGI is > 100 µM.
Regarding `CCOP(=O)(OCC)C(C(=O)OC)C(=O)C(=O)Nc1c(C)cc(Br)cc1C` (stereo not drawn), the TGI is > 100 µM.
Turning to `CCOC(=O)/C(=C(/C)NCC(C)C)c1cc(O)c(O)c2c(C)cc(=O)[nH]c12`, the GI50 was 4.31 µM and the TGI was > 100 µM.
For `CCOC(=O)c1ccc(NC(=O)SCCC(=O)O)cc1`, the TGI was > 100 µM.
For `CCCCCCc1nc2nc(Cl)c(Cl)nc2[nH]1`, the GI50 was > 100 µM and the TGI is > 100 µM.
As for `C=C(C)[C@@H]1CC[C@]2(CO)CC[C@]3(C)[C@H](CC[C@@H]4[C@@]5(C)CCC(NCCc6ccc(O)cc6)C(C)(C)[C@@H]5CC[C@]43C)[C@@H]12` (stereo partly drawn), the GI50 is 1.45 µM and the TGI is 2.81 µM.
As to `OCC1OC(n2cnc3c(Cl)nc(Cl)cc32)C(O)C1O` (stereo not drawn), the GI50 was > 100 µM and the TGI is > 100 µM.
Consider `O=[N+]([O-])c1cc(Cl)cc2cc(Br)cnc12`, for which the TGI was > 31.6 µM.
Consider `C/C(=C(\c1ccc(OCCN2CCCCCC2)cc1)c1ccc(OC(=O)Cc2ccccc2)cc1)c1ccc(Cl)cc1`, for which the GI50 is 4.29 µM and the TGI was 14.4 µM.
For `Cc1cc(C)nc(SCCc2cccc[n+]2C)n1`, the TGI is > 100 µM.
For `CCN(CC)CCCC(C)N=c1cc(Nc2cc(=NC(C)CCCN(CC)CC)c3cc(OC)ccc3o2)oc2ccc(OC)cc12` (stereo not drawn), the GI50 is 1.1 µM and the TGI came out at 3.14 µM.
Turning to `COc1cccc2c1c(C1=C(c3cn(C)c4ccccc34)C(=O)NC1=O)cn2C`, the GI50 is > 25 µM and the TGI was > 25 µM.
Consider `COC(=O)c1ccc(Cl)cc1NC(=O)C1CCCCC1`, for which the TGI was > 100 µM.
Molecule `CC(O)C1(CNc2cc(Cl)nc(N)n2)CC(CCc2ccccc2)C1` (stereo not drawn) showed a TGI of 27.5 µM.
Molecule `COc1ccc2nc3ccccc3c(NCCCN(C)CCCl)c2c1` registered a TGI of 2.52 µM.
Turning to `COc1ccc(-c2c(-c3cc(OC)c(OC)c(OC)c3)noc2N)cc1`, the GI50 is 0.0684 µM and the TGI is > 100 µM.
On the same counts, the results for `O=C(NCc1ccncc1)C12CC3CC(C1)CC(c1ccc(Cl)cc1)(C3)C2` are 13.9 µM and 26.9 µM.
Taken in the same sequence, the figures for `COc1ccc(CNc2nc3cc(N)cc(N)c3nc2-c2ccccc2)cc1` were 23 µM and 52 µM.
With `COc1ccc(OC)c(CC(C)N)c1` (stereo not drawn), the TGI is > 100 µM.
`N#CC1=C(N)NC(=S)NC12Nc1ccccc1N2`: the GI50 was 27.4 µM and the TGI worked out at 96.9 µM.
As for `O=c1[nH]c(=O)n(C2CC(O)C(CO)O2)cc1OCC1CCCCC1` (stereo not drawn), the TGI is > 100 µM.
For `CCOc1ccccc1NC(=O)CCc1n[nH]c(=S)o1`, the TGI was > 100 µM.
Regarding `Cc1ccc2[nH]c3c(c2c1)C1CCC(C(C)(C)C)CC1C1C(=O)N(c2ccc4c(c2)OCO4)C(=O)C31` (stereo not drawn), the TGI is 15.2 µM.
As for `O=S(=O)(Nc1cc(Cl)ccc1Cl)c1ccc(-c2cnc(C3CC3)o2)cc1`, the GI50 is 6.1 µM and the TGI was > 100 µM.
As for `N#C/C(=C/Sc1ccccc1)C(=O)O`, the TGI was > 100 µM.
In the case of `CC(=O)N1CC(=O)N2C(=O)/C(=C/c3ccc(Cl)cc3)N=C12`, the TGI was > 100 µM.
The molecule `Cn1/c(=N\N=C(\CNCCO)[C@@H](O)[C@@H]2OC(c3ccccc3)OC[C@H]2O)sc2ccccc21` (stereo partly drawn) returned a TGI of 36.8 µM.
Take `CCOC(=O)C(C)(C)C(O)C(C)C` (stereo not drawn): the TGI is > 100 µM.
On the same count and under the same terms, the same measure for `CCCCCCCC(=O)OCC1OC(OC)C(NC(=O)N(CCCl)N=O)C(O)C1O` (stereo not drawn): 74.5 µM; for `CC(=O)NNC(=O)C1CCCCN1` (stereo not drawn): > 100 µM.
On to `COc1cnc2c(c1)C(=O)c1c-2n(CCCNC(C)C)c(=O)c2cc(F)ccc12`, for which the GI50 was 0.315 µM and the TGI came out at 2.39 µM.
As to `C#CCCCOc1ncccn1`, the TGI was > 100 µM.
The same measure, in the same setting: with `NS(=O)(=O)c1ccc(Nc2c3ccccc3nc3c(C(=O)NCCO)cccc23)cc1` the figure was 0.446 µM; with `CC(C)(C)OC(=O)C1CC[C@@H](CC(=O)Oc2ccc([N+](=O)[O-])cc2)N1` (stereo partly drawn), > 100 µM.
As to `COc1cc(S(=O)(=O)Nc2nc(-c3ccc(N4C(=O)/C(=C/c5ccccc5[N+](=O)[O-])N=C4c4ccccc4)cc3)cs2)ccc1Cl`, the TGI is > 100 µM.
On to `CNC(=O)Oc1cc(C)c(/C=C/c2cncc(C(=O)NC)c2)c(C)c1`, for which the GI50 is > 25 µM and the TGI was > 25 µM.
Regarding `CC[C@]12C=CCN3CC[C@@]4(c5cc(Br)c(OC)cc5N(C)[C@H]4[C@@](O)(C(=O)N[C@@H](Cc4ccc(O)cc4)C(=O)OC)[C@@H]1O)[C@@H]32`, the TGI was found to be 46.2 µM.
Still for that read-out and setting: the same measure for `Cc1nc2ccccc2c(=O)n1NC(=S)Nc1ccc(Cl)cc1[N+](=O)[O-]`: > 100 µM; for `OC1C2CCC1C1C3C=CC(C3)C21` (stereo not drawn): > 100 µM; for `COc1ccc(-n2c(N)c(C#N)c(C#N)c2-c2ccccc2)cc1`: > 100 µM.
In turn, `O=C1C(Cl)C(c2cc3cc(Br)ccc3nc2Cl)N1c1ccc(Cl)cc1` (stereo not drawn) showed a TGI of 11.5 µM.
With `CCc1ccc2c(c1)N(CCO)C1=C(C(=O)OC1)C2c1cccc(Cl)c1` (stereo not drawn), the GI50 was 10.8 µM and the TGI stood at 28 µM.
`COc1ccc(C=C(c2ccc(OCc3ccccc3)cc2)c2ccc(OCc3ccccc3)cc2)cc1`: the TGI was > 100 µM.
As to `CNC(=O)c1cccc2c(Nc3ccc(NS(C)(=O)=O)cc3OC)c3cccc(C)c3nc12`, the TGI was determined as 13.7 µM.
For the molecule `Cn1c2c3ccc(Cl)cc3nc-2c(Cl)c2ccccc21`, the TGI is > 100 µM.
Turning to `COc1ccc2c(ccc3c(COC(=O)NC(C)C)c(COC(=O)NC(C)C)n(C)c32)c1`, the TGI amounted to 39.8 µM.
As for `CC(=O)O[C@H]1CCC2[C@@H]3CCC4Cc5nc6c(nc5C[C@]4(C)C3CC[C@@]21C)CC1CC[C@@H]2C(CC[C@@]3(C)C2CC[C@@H]3C(C)CCCC(C)C)[C@@]1(C)C6` (stereo partly drawn), the TGI was > 100 µM.
For `C=C1C(=O)O[C@@H]2C1C[C@@H](O)C(=C)CC/C=C(\C)CCC[C@H](C)[C@H]2OC(C)=O` (stereo partly drawn), the GI50 is 14.6 µM and the TGI came to 29.1 µM.
In the case of `c1ccc2c(c1)[nH]c1c2nc2ncccn21`, the TGI was > 100 µM.
As for `CCOC(=O)C1=CC(C)(C(=O)OCC)Nc2c(nc(OC)[nH]c2=O)N1` (stereo not drawn), the TGI is > 10 µM.
On the same count and under the same terms, with `C/C(=N\NC(=S)N(C)CCN(C)C(=S)N/N=C(\C)c1ccccn1)c1ccccn1` the figure was 15.4 µM.
